Source: the RNAGym collection of RNA variant scans (doi:10.1073/pnas.2313332121)
Variants at the background level are over-represented here.

B1: TPR 5TU (parent)
chain: GGAUCUUCUCGAUCUAACAAAAAAGACAAAUCUGCCACAAAGCUUGAGAGCAUCUUCGGAUGCAGAGGCGGCAGCCUUCGGUGGCGCGAUAGCGCCAACGUUCUCAACUAUGACACGCAAAACGCGUGCUCCGUUGAAUGGAGUUUAUCAUG

Variants of: B1
Test: polymerase ribozyme fitness, log enrichment relative to wild type (log ratio); higher = more active; in vitro selection for triplet polymerase activity
Procedure, shortened: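 Mutant libraries for each subunit of a heterodimeric triplet polymerase ribozyme were made by PCR and then transcribed. Each library underwent one round of in vitro selection in triplicate: annealing with a biotinylated primer, the partner subunit and triplets, frozen incubation at −7 °C, gel excision of extended constructs, streptavidin-bead capture and RT-PCR. Input and output libraries were Illumina-sequenced, and only genotypes with ≥10 input reads and ≥1 read per output were kept. Fitness is the logarithm, base 2, of genotype enrichment over wild-type enrichment, computed from inverse-variance-weighted replicate averages.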

First: GGAUCUUCUCGAUAUAACAAAAAAGACAAAUCUACCACACAGCUUGAGAGCAUCGUCGGAUGCAGAGGCGGCAGCCUUCGGUGGCGGGAUAGCGCCAACGUUCUCAACUAUGAGACUCAACACGCGUGCUCCGUUGAAAGGAGUUUAUCAUG [C14A G34A A40C U55G C87G C114G G117U A121C U139A]
Second: GGAUCUUCUCGAUAUAACAAAAAAGACAAAUCUGCCACAAAGCUUGAGAGCAUCUUCGAAUGCAGAGGCGGCAGCCUUCGGAGUCGCGAUAGCGCCAACGUUCUCAACUAUGACACGCAAAACGCGUGCUCCGUUGAAUGGAGUUUAUCAUG [C14A G59A U82A G84U]
The “polymerase ribozyme fitness (log ratio)” value of the first is lower: no more than -4.2 for the first, -4.06 for the second.

GGAUCUUCUCGAUAUAACAAAAAAGACAAAUCUGCCACAAAGCUUGAGAGCAUCUUCGGAUGCAGAGGCGGCAGACUUCGGUGGCGCGAUAGCGCCAAUGUUCUCAACUAUGACACGCAAAACGCGUGCUCCGUUGAAUGGAGUUUCUCAUG [C14A C75A C99U A147C] and GGAUCUUCUCGAUAUAACAAAAAAGACAAAUUUGCCACAAAGCUUGAGAGCAUCUUCGGAUGCAGAGGCGGCAGCCUUCGGUGUCGCGAUAGCGCCAACUUUGUCAACUAUGACACGCAAAACGCGUGCUCCGUUGAAUGGAGUUUAUCAUG [C14A C32U G84U G100U C103G] cannot be ordered by “polymerase ribozyme fitness (log ratio)” value: no more than -4.2 for the first, no more than -4.2 for the second.

GGAUCUUCUCGAUAUAACAAAAAAGACAAAUCUGCCACAAAGCUUGAGAGCAUCUUCGGAUGCAGAGGCGGCAGCCUUCGGUGGCGCGAUAGCACCAACGUUCUCAACCAUGACACGCAAAGCGCGUGCUCCGUUGAAUGGAGUUUAUCAUG [C14A G94A U109C A122G] and GGAUCUUCUCGAUAUAACAAAAAAGACAAAUCUGCCACAAAGCUUGAGAGCAUCUUCGGAUGCAGAGGCGGCAGCCUUCGGUGGGGCGAUAGCGCCAACGUUCUCAACUAUGACACGCAAAACGCGUGUUCCGUUGAAUGGAGUUUAUCAUG [C14A C85G C129U] cannot be ordered by “polymerase ribozyme fitness (log ratio)” value: no more than -4.2 for the first, no more than -4.2 for the second.

GGAUCUUCUCGAUAUAACAAAAAAGACAAAUCUGCCACAAAGCUUGAGAGCAUCUUCGGAUGCAGAGGCGGCAGCGUUCGGUGGCGAGAUAGCGCCAACGUUCUCAACUAUGACACGCGAAACGCGUGCUCCGUUGACUGGAGUUUAACAUG [C14A C76G C87A A119G A138C U148A] and GGAUCUUCUCGAUAUAACAAAAAAAACAAAUCUGCCACAAAGCUUGAGAGCAUCUUCGGAAGCAGAGGCGGCAUCCUUCGGUGGCGCGAUAGCGCCAACGUUCUCAACUAUGACACGCAAAACGCGUGCUCCGUUGAAUGGAGUUUAUCAUG [C14A G25A U61A G74U] cannot be ordered by “polymerase ribozyme fitness (log ratio)” value: no more than -4.2 for the first, no more than -4.2 for the second.

GGAUCUUCUCGAUAUAACAAAAAAGACAAAUCUGCCACAAAGCUUGAGAGCAUCUUCGGAUGCAGAGGCGGCAGCCUUCGGUGGCGCGAUAGGGCCAACGUUCUCAACUAUGACACGCAAAACGCGUGCUCCGUUGAAUGGAGUUUAUCAUG [C14A C93G] and GGAUCUUCUCGAUAUAACAAAAAAGACAAAUCUGCCACAAAGCUUGAGAGCAUCUUCGGAUGCAGAGGCGGCAGCCUUCGGUGGCGCGAUCGCGCCAACGUUCUCAACUAUGACACGCAAAACGCGUGCUCCGUUGAAUGGAGUUUAUCAUG [C14A A91C] cannot be ordered by “polymerase ribozyme fitness (log ratio)” value: no more than -4.2 for the first, no more than -4.2 for the second.

GGAUCUUCUCGAUAUAACAAAAAAGACAAAUCUGGCCCAAAUCUUGAGAGCAUCUUCGGAUGCAGAGGCGGCAGCCUUCGGUGGCGCGAUAGCCCCAACGUUCUCAACUAUGACACGCAAAACGCGUGCUCCUUUGAGUGGAGUUUAUCUUG [C14A C35G A37C G42U G94C G133U A138G A150U] and GGAUCUUCUCGAUAUAACAAAAAAGACAAAUCUGCCACAAAGAUUGAGAGCAUCUUCGGAUGCAGAGGCGGCAGCCUUCGGUGGUGCGAUAGCGCCAACGUUCGCAACUAUGACCCGCAGAACGCGUGCUCCGUUGAAUAGAGUUUAUCAUG [C14A C43A C85U U104G A115C A120G G140A] cannot be ordered by “polymerase ribozyme fitness (log ratio)” value: no more than -4.2 for the first, no more than -4.2 for the second.

Compared with GGAUCUUCUCGAUAUAACAAAAAAGACAAAUUUGCCACAAAGCUUGAGAGCUUCUUCGGAUGCAGAGGCGGCAGCCUUCGGUGGGGCGAAAGCGCCAACGUUCUCAACUAUGACCCGCAAAACGCGUGCUCCGUUGAAUGGAGUUUAUCAUG [C14A C32U A52U C85G U90A A115C], GGAUCUUCUCGAUAUAACAAAAAAGACAAAUCUGCCACAAAGCUUGAGAGCAUCUUCUGAUGCAGAGGCGGCAGCCUUCGGUGGCGCGAUAGCGCCAACGUUCUCAACUAUGACACGCAAAACGCGUGCUCCGUUGAAUGGAGUUUAUCAUG [C14A G58U] is higher in “polymerase ribozyme fitness (log ratio)” value: no more than -4.2 for the first, -1.88 for the second.

First: GGAUCUUCUCGAUAUAACAAAAAAGACAAAUCUGCCACAAAGCUUGAGAGCAUCUUCCGAUGCAGAGGCGGCAGCCUUCGGUGGCGCGAUAGCGCCAACGUUCUCAACUAUGACACGCAAAACGCGUGCUCCGUUGAAUGGAGUUUAUCAUG [C14A G58C]
Second: GGAUCUUCUCGAUAUAACAAAAAAGACAAAUCUGCCACAAAGCUUGAGAGCAUCUUCGGAUGCAGAGGCGGCAGCCUUCGGUCGCGCGAUAGUGCCAACGUUCUCAAAUAUGACACGCAAAACGCGUGCUCCGUUGAAUGGAGUUUAUCAUA [C14A G83C C93U C108A G152A]
The “polymerase ribozyme fitness (log ratio)” value of the first is higher: -1.28 for the first, no more than -4.2 for the second.

First: GGAUCUUCUCGAUAUAACAAAAAAGACAAAUCUGCCACAAAGCUUGAGAGCAUCUUCGGAUGCAGAGGCGGCAGCCUUCGGUGGCGCGAUAGCACCAACGUUCUCAACUAUGACACGCAAAACGCGUGCUCCGUUGAAUGGAGUUUAUCAUG [C14A G94A]
Second: GGAUCUUCUCGAUAUAACAAAAAAGAGAAAUCUGCCACAAAGCUUGAGAGCAUCUUCGGAUGCAGAGGCGGCAGCCUUCGGUGGCGCGAUAGCGCCAACGUUCUCAACUAUGACACGCAAAACGCGUGCUCCGUUGAAUGGAGUUUAUCAUG [C14A C27G]
The “polymerase ribozyme fitness (log ratio)” value of the first is higher: -1.67 for the first, no more than -4.2 for the second.

For GGAUCUUCUCGAUAUAACAAAAAAGACAAAUCUGCCACAAAGCUUGAGAGCAUCUUCGGAUGCAGAGGCGGGUGCCUUCGGUGGCGGGAUAGCGCCAACGUUCUCAACUAUGACACGCAAAACGCGUGCUCCGUUGAAUGGAGUUUAUCAUG [C14A C72G A73U C87G], the “polymerase ribozyme fitness (log ratio)” value was no more than -4.2.
